The source of these data is publication PMC3281992.

The chains behind the UniProt entries cited, without tags or fusion partners.
UniProt Q9CQJ4: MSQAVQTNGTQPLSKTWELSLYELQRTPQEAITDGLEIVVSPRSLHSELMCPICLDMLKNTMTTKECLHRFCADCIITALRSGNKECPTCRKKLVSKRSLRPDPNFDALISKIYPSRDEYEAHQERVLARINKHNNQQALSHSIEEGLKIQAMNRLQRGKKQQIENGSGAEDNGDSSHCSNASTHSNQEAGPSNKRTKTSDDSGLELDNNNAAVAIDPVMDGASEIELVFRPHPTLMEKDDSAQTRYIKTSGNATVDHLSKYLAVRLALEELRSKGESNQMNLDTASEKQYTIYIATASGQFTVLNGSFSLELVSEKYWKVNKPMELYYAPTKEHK
UniProt O35730: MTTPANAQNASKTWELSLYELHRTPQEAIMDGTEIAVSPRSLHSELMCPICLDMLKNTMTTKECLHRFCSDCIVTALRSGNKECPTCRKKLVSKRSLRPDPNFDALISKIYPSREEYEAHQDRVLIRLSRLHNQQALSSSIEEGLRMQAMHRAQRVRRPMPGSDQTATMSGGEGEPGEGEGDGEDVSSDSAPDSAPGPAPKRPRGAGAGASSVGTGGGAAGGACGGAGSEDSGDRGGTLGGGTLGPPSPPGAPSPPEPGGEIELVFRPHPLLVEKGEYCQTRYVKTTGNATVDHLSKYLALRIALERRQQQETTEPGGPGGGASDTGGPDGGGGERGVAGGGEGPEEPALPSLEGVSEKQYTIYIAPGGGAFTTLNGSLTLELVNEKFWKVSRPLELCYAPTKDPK

Assay [1] concerns the target CBX7-Flag (mouse) (UniProt Q8VDS3). Nature of the assay: co-IP; Flag purification of MEL-18-Flag, RYBP-Flag or CBX7-Flag from PGK12.1 mESC nuclear extract, analysed by western blot.
The target of assay [2] is T1, RYBP-Flag (mouse) (UniProt Q8CCI5).
T1 sequence: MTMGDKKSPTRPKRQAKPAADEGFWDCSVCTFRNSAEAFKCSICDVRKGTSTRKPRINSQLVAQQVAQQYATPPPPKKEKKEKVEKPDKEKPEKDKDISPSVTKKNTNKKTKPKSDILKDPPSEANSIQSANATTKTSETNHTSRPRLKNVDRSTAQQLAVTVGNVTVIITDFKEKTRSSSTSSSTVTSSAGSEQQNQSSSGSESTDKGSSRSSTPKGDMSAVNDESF
The description is as above.

Assay [3] deals with RING1B (mouse (endogenous in mESCs, NSCs, FSPE fibroblasts)) (UniProt Q9CQJ4). Nature of the assay: co-IP; endogenous proteins from FSPE mouse fibroblast nuclear extract; IP of RING1B and RYBP; with or without Benzonase or EtBr; western blot.
The target in assay [4] is T2, RYBP (mouse (endogenous in mESCs, NSCs, FSPE fibroblasts)) (UniProt Q8CCI5).
T2 sequence: T1 sequence
Described as above.

The target in assay [5] is RING1B (mouse (endogenous in mESCs, NSCs, FSPE fibroblasts)) (UniProt Q9CQJ4). The assay can be described thus: co-IP; endogenous proteins from Eed4 WT and Eed4 cKO (doxycycline, Eed-depleted) mESC nuclear extracts; antibodies to RING1B, MEL-18, RYBP or CBX7 crosslinked to Protein A/G magnetic beads; with or without Benzonase or EtBr; washes in C-100* (100 mM KCl) at 4°C; western blot.

Assay [6] addresses T2, RYBP (mouse (endogenous in mESCs, NSCs, FSPE fibroblasts)). Described as above.
For assay [7], the target named is T3, MEL-18-Flag (mouse) (UniProt P23798).
T3 sequence: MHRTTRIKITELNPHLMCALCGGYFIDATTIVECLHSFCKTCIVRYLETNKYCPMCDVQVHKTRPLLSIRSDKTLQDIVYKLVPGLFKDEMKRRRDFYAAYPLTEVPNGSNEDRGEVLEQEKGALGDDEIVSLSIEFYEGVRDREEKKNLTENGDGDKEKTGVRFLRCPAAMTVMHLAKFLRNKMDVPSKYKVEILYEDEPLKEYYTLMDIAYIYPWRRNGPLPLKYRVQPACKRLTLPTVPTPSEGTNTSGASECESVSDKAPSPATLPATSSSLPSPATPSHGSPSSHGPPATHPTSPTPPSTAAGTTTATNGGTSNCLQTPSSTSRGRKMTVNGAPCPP
Nature of the assay: SEC; MEL-18-Flag complexes purified from mESC nuclear extract by Flag affinity, run on Superose 6 PC 3.2/30 in C-100* buffer (100 mM KCl); fractions analysed by western blot.

Assay [8] deals with CBX7 (mouse (endogenous in mESCs, NSCs, FSPE fibroblasts)) (UniProt Q8VDS3). The assay can be described thus: co-IP; endogenous proteins from Eed4 WT and Eed4 cKO (doxycycline, Eed-depleted) mESC nuclear extracts; antibodies to RING1B, MEL-18, RYBP or CBX7 crosslinked to Protein A/G magnetic beads; with or without Benzonase or EtBr; washes in C-100* (100 mM KCl) at 4°C; western blot.

Assay [9] deals with T4, MEL-18 (mouse (endogenous in mESCs, FSPE fibroblasts)) (UniProt P23798).
T4 sequence: T3 sequence
Described as above.

The target of assay [10] is RING1B-Flag-Hisx2 (UniProt Q9CQJ4). Nature of the assay: co-purification of co-expressed recombinant proteins; Sf9 cells co-infected with baculoviruses for 60 hr; complexes purified as in Elderkin et al., 2007; analysed by western blot and Simply Blue Safe staining; bait not stated.
In assay [11] the target is T5, CBX7-Flag (mouse), Q8VDS3.
T5 chain: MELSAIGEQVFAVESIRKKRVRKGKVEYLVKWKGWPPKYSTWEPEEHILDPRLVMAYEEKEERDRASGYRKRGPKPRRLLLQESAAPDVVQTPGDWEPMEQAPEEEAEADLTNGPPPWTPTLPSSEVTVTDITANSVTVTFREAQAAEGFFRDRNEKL
Nature of the assay: co-IP; Flag purification of MEL-18-Flag, RYBP-Flag or CBX7-Flag from PGK12.1 mESC nuclear extract, analysed by western blot. The note with it: remark: other sources report otherwise.

Assay [12] concerns the target T6, CBX7 (mouse (endogenous in mESCs, NSCs, FSPE fibroblasts)), Q8VDS3.
T6 chain: T5 chain
Nature of the assay: co-IP; endogenous proteins from Eed4 WT and Eed4 cKO (doxycycline, Eed-depleted) mESC nuclear extracts; antibodies to RING1B, MEL-18, RYBP or CBX7 crosslinked to Protein A/G magnetic beads; with or without Benzonase or EtBr; washes in C-100* (100 mM KCl) at 4°C; western blot. The note with it: remark: other sources report otherwise.

These are yes or no findings as the source states them, for the method shown. For some of these results: Binding seen in cells or lysates may run through a third protein. Some binding calls cover weakened binding; strength is not graded here. For some of these results: Tags and fused reporters may be left off the sequences shown.

Turning to RING1A (from UniProt O35730 1-406), the binding entry in assay [1] and in assay [2] was “binds” each time.

As for CBX7 (from UniProt Q8VDS3 1-158), the binding result is reported as “binds” in assay [3], “no binding” in assay [4], “binds” in assay [5] and “no binding” in assay [6].

Turning to RING1B (from UniProt Q9CQJ4 1-336), the binding result in assay [1], in assay [2], in assay [7], in assay [8], in [9] and in [6] was “binds” in each case.

For CBX7-HA (from UniProt Q8VDS3 1-158), in assay [10], the binding entry is listed as “binds”.

B1: MPH1 (protein, UniProt Q64028 1-1010)
chain: METESEQNSSSTNGSSSSGASSRPQIAQMSLYERQAVQALQALQRQPNAAQYFHQFMLQQQLSNAQLHSLAAVQQATIAASRQASSPNSSTAQQQTATTQASMNLATTSAAQLISRSQSVSSPSATTLTQSVLLGNTTSPPLNQSQAQMYLRPQLGNLLQVNRTLGRNVPLASQLILMPNGAVAAVQQEVPPAQSPGVHADADQVQNLAVRNQQASAQGPQMPGSTQKAIPPGASPVSGLSQTSSQALAVAQASSGASGQSLNLSQAGGGSGNSLPGSMGPGGGGQAPGGLGQLPSSGLTGGSCPRKGTGVVQPLPAAQTVTVSQGSQTEAESAAAKKAEADGSGQQSVGMNLTRTATPAPSQTLISSATYTQIQPHSLIQQQQQIHLQQKQVVIQQQIAIHHQQQFQHRQSQLLHTATHLQLAQQQQQQQQQQQQQQQQQQQQQQGTTLTAPQPPQVPPTQQVPPSQSQQQAQTLVVQPMLQSSPLTLPPEPTSKPPIPIQSKPPVAPIKPPQLGAAKMSATQQPPPHIPVQVVGTRQPGSAQAQALGLAQLAAAVPTPRGITGAVQPGQAHLASSPPSSQAAPGALQECPPALAAGMTLAPVQGTAHVVKGGPTASSPVVAQVPAAFYMQSVHLPGKAQTLAVKRKAESEEERDDLSALASVLPTKASPAAESPKVIEEKNSLGEKAEPVASLNANPPNSDLVALAPTPSAPPPTLALVSRQMGDSKPPQAIVKPQILTHIIEGFVIQEGAEPFPVGCSQFLKETKKPLQAGLPTGLNESQPSGPLGGDSPSVELEKKANLLKCEYCGKYAPAEQFRGSKRFCSMTCAKRYNVSCSHQFRLKRKKMKEFQEASYARVRRRGPRRSSSDIARAKIQGKRHRGQEDSSRGSDNSSYDEALSPTSPGPLSVRAGHGERDLGNTITTPSTPELQGINPVFLSSNPSQWSVEEVYEFIASLQGCQEIAEEFRSQEIDGQALLLLKEEHLMSAMNIKLGPALKICAKINVLKET
Take B1: the binding result in assay [9] was “binds”; in [5] it was “binds”; in assay [6] it was “binds weakly”.

B2: MPH1, Q64028 1-1010 (protein)
chain: B1 chain
B2: the binding result in assay [11] and in assay [12] was “binds” each time.

B3: MEL-18, P23798 1-342 (protein)
chain: T3 sequence
In the case of B3, the binding entry in assay [11] and in [12] was “binds” in each case.

B4: MEL18-HA (protein, UniProt P23798 1-342)
chain: T3 sequence
With B4, in assay [10], the binding result was “binds”.

B5: RYBP-HA (protein, UniProt Q8CCI5 1-228)
chain: T1 sequence
B5: in assay [10], the binding entry is on record as “binds”.
